Measurements published in the supplement of paper PMC8728848.
This is one part of the list.

Key:
Test in all cases: glycan array binding signal (z-score within array); higher = stronger binding
Conditions in all cases: glycan notation: IUPAC condensed, linker removed
[1] = target: GlcA(b1-3)GlcNAc
In short: (§1)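 From the Consortium for Functional Glycomics database, 3228 arrays were curated, keeping only those whose protein sequence was available. Binding is given as a within-array Z-score averaged across arrays sharing a protein sequence and across linkers. Negative Z-scores can be read as non-binding.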

[2] = target: GlcA(b1-6)Gal
In short: as §1

[3] = target: GlcNAc(a1-3)Gal(b1-4)GlcNAc
In short: as §1

[4] = target: GlcNAc(a1-4)Gal(b1-3)GlcNAc
In short: as §1

[5] = target: GlcNAc(a1-4)Gal(b1-4)GalNAc
In short: as §1

[6] = target: GlcNAc(a1-4)Gal(b1-4)GlcNAc
In short: as §1

[7] = target: GlcNAc(a1-4)Gal(b1-4)GlcNAc(b1-3)Gal(b1-4)Glc
In short: as §1

[8] = target: GlcNAc(a1-4)Gal(b1-4)GlcNAc(b1-3)Gal(b1-4)GlcNAc
In short: as §1

[9] = target: GlcNAc(a1-4)Gal(b1-4)GlcNAc(b1-3)Gal(b1-4)GlcNAc(b1-3)Gal(b1-4)GlcNAc
In short: as §1

[10] = target: GlcNAc(a1-4)Gal(b1-4)GlcNAc(b1-3)Gal(b1-4)[Fuc(a1-3)]GlcNAc(b1-3)Gal(b1-4)[Fuc(a1-3)]GlcNAc
In short: as §1

[11] = target: GlcNAc(a1-6)Gal(b1-4)GlcNAc
In short: as §1

[12] = target: GlcNAc(b1-2)Gal(b1-3)GalNAc
In short: as §1

[13] = target: GlcNAc(b1-2)Man(a1-3)[GlcNAc(b1-2)Man(a1-6)]Man(b1-4)GlcNAc(b1-4)GlcNAc
In short: as §1

[14] = target: GlcNAc(b1-2)Man(a1-3)[GlcNAc(b1-2)Man(a1-6)]Man(b1-4)GlcNAc(b1-4)[Fuc(a1-6)]GlcNAc
In short: as §1

[15] = target: GlcNAc(b1-2)Man(a1-3)[GlcNAc(b1-4)][GlcNAc(b1-2)Man(a1-6)]Man(b1-4)GlcNAc(b1-4)GlcNAc
In short: as §1

[16] = target: GlcNAc(b1-2)[GlcNAc(b1-4)]Man(a1-3)[GlcNAc(b1-2)Man(a1-6)]Man(b1-4)GlcNAc(b1-4)GlcNAc
In short: as §1

[17] = target: GlcNAc(b1-2)[GlcNAc(b1-4)]Man(a1-3)[GlcNAc(b1-4)][GlcNAc(b1-2)Man(a1-6)]Man(b1-4)GlcNAc(b1-4)GlcNAc
In short: as §1

[18] = target: GlcNAc(b1-2)[GlcNAc(b1-4)]Man(a1-3)[GlcNAc(b1-4)][GlcNAc(b1-2)[GlcNAc(b1-6)]Man(a1-6)]Man(b1-4)GlcNAc(b1-4)GlcNAc
In short: as §1

[19] = target: GlcNAc(b1-2)[GlcNAc(b1-4)]Man(a1-3)[GlcNAc(b1-4)][GlcNAc(b1-2)[GlcNAc(b1-6)]Man(a1-6)]Man(b1-4)GlcNAc(b1-4)[Fuc(a1-6)]GlcNAc
In short: as §1

[20] = target: GlcNAc(b1-2)[GlcNAc(b1-6)]Man(a1-6)[GlcNAc(b1-2)Man(a1-3)]Man(b1-4)GlcNAc(b1-4)GlcNAc
In short: as §1

[21] = target: GlcNAc(b1-2)[GlcNAc(b1-6)]Man(a1-6)[GlcNAc(b1-2)Man(a1-3)]Man(b1-4)GlcNAc(b1-4)[Fuc(a1-6)]GlcNAc
In short: as §1

[22] = target: GlcNAc(b1-2)[GlcNAc(b1-6)]Man(a1-6)[GlcNAc(b1-2)Man(a1-3)][GlcNAc(b1-4)]Man(b1-4)GlcNAc(b1-4)GlcNAc
In short: as §1

[23] = target: GlcNAc(b1-3)Gal
In short: as §1

[24] = target: GlcNAc(b1-3)Gal(b1-3)GalNAc
In short: as §1

[25] = target: GlcNAc(b1-3)Gal(b1-4)Glc
In short: as §1

[26] = target: GlcNAc(b1-3)Gal(b1-4)GlcNAc
In short: as §1

[27] = target: GlcNAc(b1-3)Gal(b1-4)GlcNAc(b1-3)Gal(b1-4)GlcNAc
In short: as §1

[28] = target: GlcNAc(b1-3)GalNAc
In short: as §1

[29] = target: GlcNAc(b1-3)Man
In short: as §1

[30] = target: GlcNAc(b1-3)[GlcNAc(b1-4)][GlcNAc(b1-6)]GlcNAc
In short: as §1

[31] = target: GlcNAc(b1-3)[GlcNAc(b1-6)]Gal(b1-4)GlcNAc
In short: as §1

[32] = target: GlcNAc(b1-3)[GlcNAc(b1-6)]GalNAc
In short: as §1

[33] = target: GlcNAc(b1-4)Gal(b1-4)GlcNAc
In short: as §1

[34] = target: GlcNAc(b1-4)GlcNAc
In short: as §1

[35] = target: GlcNAc(b1-4)GlcNAc(b1-4)GlcNAc
In short: as §1

[36] = target: GlcNAc(b1-4)GlcNAc(b1-4)GlcNAc(b1-4)GlcNAc(b1-4)GlcNAc
In short: as §1

[37] = target: GlcNAc(b1-4)GlcNAc(b1-4)GlcNAc(b1-4)GlcNAc(b1-4)GlcNAc(b1-4)GlcNAc
In short: as §1

[38] = target: GlcNAc(b1-4)[GlcNAc(b1-6)]GalNAc
In short: as §1

B1: ArathEULS3 (Arabidopsis thaliana), Q945P1 (protein)
chain: MEHHHQHHRHHQRDDGEDDRQSFGVPPPHVDAPPQPHGLYQSQPHFDPYAPTPQAPAPYRSETQFEPHAPPPYRSEPYFETPAPPPSFGHVSHVGHQSPNESYPPEHHRYGGYQQPSNSLLESHGDHSGVTHVAHHSSNQPQSSSGVYHKPDENRLPDNLAGLAGRATVKVYSKAEPNYNLTIRDGKVILAPADPSDEAQHWYKDEKYSTKVKDADGHPCFALVNKATGEAMKHSVGATHPVHLIRYVPDKLDESVLWTESKDFGDGYRTIRMVNNTRLNVDAYHGDSKSGGVRDGTTIVLWDWNKGDNQLWKIFPFILEQKLISEEDLNSAVDHHHHHH
glycan array binding signal (z-score) [1]: -0.102 | glycan array binding signal (z-score) [2]: -0.028 | glycan array binding signal (z-score) [3]: -0.273 | glycan array binding signal (z-score) [4]: 0.245 | glycan array binding signal (z-score) [5]: -0.031 | glycan array binding signal (z-score) [6]: 0.01 | glycan array binding signal (z-score) [7]: -0.112 | glycan array binding signal (z-score) [8]: -0.22 | glycan array binding signal (z-score) [9]: -0.273 | glycan array binding signal (z-score) [10]: 3.11 | glycan array binding signal (z-score) [11]: 0.19 | glycan array binding signal (z-score) [12]: -0.276 | glycan array binding signal (z-score) [13]: 0.204 | glycan array binding signal (z-score) [14]: -0.201 | glycan array binding signal (z-score) [15]: -0.393 | glycan array binding signal (z-score) [16]: -0.03 | glycan array binding signal (z-score) [17]: -0.378 | glycan array binding signal (z-score) [18]: -0.121 | glycan array binding signal (z-score) [19]: -0.219 | glycan array binding signal (z-score) [20]: -0.267 | glycan array binding signal (z-score) [21]: -0.213 | glycan array binding signal (z-score) [22]: -0.201 | glycan array binding signal (z-score) [23]: 1.53 | glycan array binding signal (z-score) [24]: -0.13 | glycan array binding signal (z-score) [25]: 0.165 | glycan array binding signal (z-score) [26]: -0.056 | glycan array binding signal (z-score) [27]: -0.25 | glycan array binding signal (z-score) [28]: 1.02 | glycan array binding signal (z-score) [29]: -0.164 | glycan array binding signal (z-score) [30]: -0.229 | glycan array binding signal (z-score) [31]: -0.375 | glycan array binding signal (z-score) [32]: -0.203 | glycan array binding signal (z-score) [33]: -0.229 | glycan array binding signal (z-score) [34]: -0.268 | glycan array binding signal (z-score) [35]: -0.233 | glycan array binding signal (z-score) [36]: -0.358 | glycan array binding signal (z-score) [37]: -0.285 | glycan array binding signal (z-score) [38]: -0.324
